Laboratory results taken from publication PMC4336329 (PLoS ONE, 2015).
Out of some 310,000 compounds screened, about 2,200 (0.71%) showed an effect of 50% or more. The effect is printed as a negative number. The list shows a part of the results.

Target: human ether-à-go-go-related gene (hERG) potassium channel (human, UniProt Q12809)
Assay: primary screen, population patch clamp on CHO cells stably expressing hERG

Chain of human ether-à-go-go-related gene (hERG) potassium channel (Q12809 whole entry, looked up): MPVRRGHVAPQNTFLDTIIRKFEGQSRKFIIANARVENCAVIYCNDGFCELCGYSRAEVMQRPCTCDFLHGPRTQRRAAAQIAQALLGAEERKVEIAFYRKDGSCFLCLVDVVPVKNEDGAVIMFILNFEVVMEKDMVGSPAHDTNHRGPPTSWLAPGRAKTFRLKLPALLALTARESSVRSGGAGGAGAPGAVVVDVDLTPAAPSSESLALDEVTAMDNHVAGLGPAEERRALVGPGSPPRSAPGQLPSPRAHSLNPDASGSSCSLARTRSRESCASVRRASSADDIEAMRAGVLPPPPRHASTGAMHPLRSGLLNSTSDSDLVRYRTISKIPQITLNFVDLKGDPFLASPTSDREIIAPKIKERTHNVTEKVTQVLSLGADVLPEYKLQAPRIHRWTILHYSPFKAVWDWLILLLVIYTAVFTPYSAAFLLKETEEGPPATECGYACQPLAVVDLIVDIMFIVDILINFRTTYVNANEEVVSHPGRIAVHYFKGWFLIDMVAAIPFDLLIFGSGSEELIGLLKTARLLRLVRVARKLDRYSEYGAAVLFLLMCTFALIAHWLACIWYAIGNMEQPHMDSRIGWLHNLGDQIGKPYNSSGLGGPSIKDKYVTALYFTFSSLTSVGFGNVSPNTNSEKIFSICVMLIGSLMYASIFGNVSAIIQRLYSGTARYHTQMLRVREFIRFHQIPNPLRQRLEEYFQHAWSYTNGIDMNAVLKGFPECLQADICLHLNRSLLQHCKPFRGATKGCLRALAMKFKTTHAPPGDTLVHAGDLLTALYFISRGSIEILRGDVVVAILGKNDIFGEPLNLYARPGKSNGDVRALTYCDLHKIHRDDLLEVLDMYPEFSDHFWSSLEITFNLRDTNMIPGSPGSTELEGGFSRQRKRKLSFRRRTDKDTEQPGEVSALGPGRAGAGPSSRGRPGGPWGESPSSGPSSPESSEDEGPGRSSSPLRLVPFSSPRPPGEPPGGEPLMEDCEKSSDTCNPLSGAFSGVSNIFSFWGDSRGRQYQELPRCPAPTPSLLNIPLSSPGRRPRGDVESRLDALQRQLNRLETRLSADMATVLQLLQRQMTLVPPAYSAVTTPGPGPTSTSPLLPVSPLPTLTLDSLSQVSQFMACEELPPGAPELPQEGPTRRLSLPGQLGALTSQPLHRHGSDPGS

Row | Compound | hERG current change (%, negative = inhibition) at 1uM [%]
1 | COc1cccc(OCc2cc(C(=O)NCCc3cccc(C)n3)no2)c1 | 8.21
2 | CCCC(C)C1(CC)C(=O)NC(=O)N=C1N (stereo not shown) | -23.6
3 | Cc1c(=O)n(OCc2ccccc2F)c2ccccc2[n+]1[O-] | 14.2
4 | COc1cccc(-c2cc(C(F)(F)F)nc(-n3cc(C)cn3)n2)c1 | 3.67
5 | NC1=NC(=O)C(Cc2cc(Cl)ccc2Cl)S1 (stereo not shown) | 15.5
6 | C/C(=N\NS(=O)(=O)c1cccc([N+](=O)[O-])c1)c1cc2ccccc2o1 | 10.4
7 | COc1ccc(Cl)cc1NC(=S)NCCc1ccc(F)cc1 | 9.98
8 | COc1ccc(C)cc1NC(=O)C1CCN(C(=O)c2ccco2)CC1 | 10
9 | CN(C)c1ccc(C(C(=O)NCC2CCCO2)N(Cc2ccccc2)C(=O)c2snc(C(N)=O)c2N)cc1 (stereo not shown) | 13.1
10 | CCOc1ccc(C(=O)NCC(c2cccs2)N(C)C)cc1OCC (stereo not shown) | -11.5
11 | O=C(c1cc(COc2ccc(F)cc2Cl)on1)N1CCc2ccccc2C1 | 12.2
12 | O=C(Nc1ccc(N2CCN(C(=O)C3CC3)CC2)cc1)c1cccs1 | 6.98
13 | O=S(=O)(Nc1ncn[nH]1)c1ccc(Cl)cc1 | 10.2
14 | O=C(Cn1c(=O)n(CC2CCCO2)c(=O)c2ccccc21)c1ccccc1 (stereo not shown) | 3.9
15 | Cc1nn(Cc2ccccc2)c(Cl)c1C(=O)OC(C)C(=O)Nc1ccc(F)cc1Cl (stereo not shown) | 0.218
16 | Cc1cccc(N2C(=S)N=C(Nc3c(C)cccc3C)C23CCOC(C)(C)C3)c1 (stereo not shown) | 21.1
17 | Nc1ccc(S(=O)(=O)NNC(=O)C(=O)NNc2ccccc2)cc1 | 10.5
18 | O=C(Nc1c[nH]c(=O)[nH]c1=O)c1cccc(F)c1 | 4.53
19 | COC(=O)CCCC1=CC2=CC(=O)C(C)(OC(=O)c3cccs3)C(=O)C2=CN1CC1CC1 (stereo not shown) | 12.4
20 | O=C(c1ccccc1F)N1CCCC(C(=O)N2CCc3ccccc3C2)C1 (stereo not shown) | 12.3

Row | Compound | hERG current change (%, negative = inhibition) at 1uM [%]
21 | CC(=C/c1ccccc1)/C=N/NC(=O)c1nnn(-c2nonc2N)c1CN1CCC(C)CC1 | 15.6
22 | Cc1ccc2cc(C(=O)O)c(C)nc2c1 | 10.8
23 | Br.CN(C)CCNc1cc(-c2ccncc2)nc2ccccc12 | 5.15
24 | CCOC(=O)CSc1nnc(NCC(=O)OC)c(=O)[nH]1 | 15.9
25 | Nc1nn(-c2ccccc2)c(N)c1N=Nc1ccccc1 | -0.274
26 | CCN1CCN(C(=O)Nc2cccc(C(F)(F)F)c2)CC1 | 16.1
27 | COc1ccc(C(=O)NN2CCCCC2)cc1OC | 0.647
28 | Cc1cccc(C)c1NC(=O)N1C2CCC1CC(O)(c1cccnc1)C2 (stereo not shown) | 6.61
29 | Cc1nc(C(=O)NCc2ccccc2)sc1C1(C)CC(c2cccnc2)=NO1 (stereo not shown) | 3.9
30 | Cc1ccc(C)c(NC(=O)COC(=O)CCNC(=O)c2ccco2)c1 | 12
31 | COc1ccc(NC(=O)COC(=O)CC2CC3CCC2C3)c([N+](=O)[O-])c1 (stereo not shown) | 11.5
32 | CC(=O)Nc1ccc(NC(=O)C(C)OC(=O)CC2CCCC2)cc1 (stereo not shown) | 5.35
33 | CCOC(=O)COc1cccc2c(=O)n(CC(=O)N3CCCCC3)ccc12 | -3.64
34 | O=C(COC(=O)c1cccnc1Nc1cccc(C(F)(F)F)c1)NCCN1C(=O)CSC1=O | -18.5
35 | N#CC1=C(N)Nc2nc3ccccc3n2C1c1ccc(F)cc1 (stereo not shown) | 22.3
36 | COc1ccc(C/C(C)=N/NC(=O)c2cccnc2)cc1 | -12.2
37 | CCc1ccc(NC(=O)C2CCN(S(=O)(=O)c3ccc4[nH]c(=O)ccc4c3)CC2)cc1 | 9.37
38 | CCCCC1(Br)C(=O)N(c2ccccc2)N(c2ccccc2)C1=O | -0.0461
39 | O=C(Oc1ccc2c(c1)OCO2)C12CC3CC(CC(C3)C1)C2 | 12.8
40 | O=C1CSc2ccc(C(=O)N3CCN(c4ccccn4)CC3)cc2N1 | -10.6

Row | Compound | hERG current change (%, negative = inhibition) at 1uM [%]
41 | Cc1nc(Nc2ccc(S(N)(=O)=O)cc2)sc1C(=O)Nc1ccccc1 | 5.96
42 | COc1ccc2cc(C(=O)N3CCc4ccccc43)[nH]c2c1 | 13.5
43 | CCn1cc(CN2CCC(Oc3ccc(C(=O)N4CCCCC4)cc3)CC2)cn1 | 10.4
44 | O=C(CS(=O)(=O)Cc1ccccc1)NCc1ccco1 | 10.6
45 | COc1ccc(C2CC(C(F)(F)F)n3nc(C(=O)O)c(Br)c3N2)cc1 (stereo not shown) | 13.3
46 | COc1ccc2oc(C(=O)Nc3nc(-c4ccccn4)cs3)c(C)c2c1 | 6.57
47 | Cc1cc2nc(C3CCN(CC4COc5ccccc5O4)CC3)[nH]c2cc1C (stereo not shown) | -65.6
48 | COc1ccc2cc(C3NC(=O)c4ccccc4N3)c(Cl)nc2c1 (stereo not shown) | 11.4
49 | C=CC[n+]1c(C)csc1Nc1ccc(C(=O)O)cc1.[Br-] | 10.1
50 | O=C(CCC1CCCCC1)Nc1c2c(nn1-c1ccc(F)cc1)CS(=O)C2 (stereo not shown) | -2.29
51 | CCOc1ccc(NC(=O)c2cccnc2SC)cc1 | 22
52 | Cc1nnsc1C(=O)N/N=C/c1ccc(OC(F)(F)F)cc1 | 4.29
53 | CCSc1nnc(NC(=O)C2CCCCC2C(=O)O)s1 (stereo not shown) | 8.19
54 | O=S1(=O)N=C(SCCO)c2ccccc21 | 4.44
55 | COc1cccc(CNC(=O)c2cccc(NC(=O)C3=C(C)OCCS3)c2)c1 | 10
56 | COCCN1C(=O)c2[nH]nc(-c3ccccc3O)c2C1c1ccc(OC)cc1 (stereo not shown) | 0.822
57 | Cc1cccc(NC(=O)CN2CCOCC2)c1C | 12.2
58 | O=C(O)c1ccc(COCC(F)(F)C(F)F)o1 | 17.9
